This passage reports binding results from publication PMC5679390.

Amino acid sequences for entries named in this document (tags omitted). A change or cut given only in a name is not applied to a line headed by its entry.
UniProt Q8GXX0: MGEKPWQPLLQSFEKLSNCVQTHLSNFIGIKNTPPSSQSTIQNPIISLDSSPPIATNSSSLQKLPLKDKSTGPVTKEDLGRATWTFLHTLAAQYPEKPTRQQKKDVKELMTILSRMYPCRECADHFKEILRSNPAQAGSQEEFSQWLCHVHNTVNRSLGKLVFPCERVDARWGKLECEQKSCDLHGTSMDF

The target in test [1] is T1, Arabidopsis thaliana Erv1 fused to the IMS-targeting sequence of cytochrome b2 followed by a hemagglutinin tag (not stated | Arabidopsis thaliana) (UniProt P00175+Q8GXX0).
T1 sequence: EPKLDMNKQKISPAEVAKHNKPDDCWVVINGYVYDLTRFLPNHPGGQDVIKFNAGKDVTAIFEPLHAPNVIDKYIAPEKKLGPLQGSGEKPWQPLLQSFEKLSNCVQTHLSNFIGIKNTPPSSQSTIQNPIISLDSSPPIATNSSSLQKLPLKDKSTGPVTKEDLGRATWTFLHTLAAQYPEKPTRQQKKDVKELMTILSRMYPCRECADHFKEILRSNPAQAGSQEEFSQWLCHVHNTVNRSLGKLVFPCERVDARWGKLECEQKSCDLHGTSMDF
Put plainly: cross-linking + co-IP; radiolabeled CCMH incubated for 2 min with mitochondria of the AtErv1-expressing Δerv1 strain; 400 μM dithiobis succinimidyl propionate for 5 min at 25 °C, lysed with 1% SDS; immunoprecipitation with Erv1- and HA-specific antibodies (Fig. 5a) or Mia40-specific antibodies (Figure S5) or pre-immune serum; cross-linker cleaved with DTT when indicated; autoradiography.

The target in test [2] is T2, yeast Mia40 (S. cerevisiae (endogenous in yeast mitochondria)) (UniProt P36046).
T2 sequence: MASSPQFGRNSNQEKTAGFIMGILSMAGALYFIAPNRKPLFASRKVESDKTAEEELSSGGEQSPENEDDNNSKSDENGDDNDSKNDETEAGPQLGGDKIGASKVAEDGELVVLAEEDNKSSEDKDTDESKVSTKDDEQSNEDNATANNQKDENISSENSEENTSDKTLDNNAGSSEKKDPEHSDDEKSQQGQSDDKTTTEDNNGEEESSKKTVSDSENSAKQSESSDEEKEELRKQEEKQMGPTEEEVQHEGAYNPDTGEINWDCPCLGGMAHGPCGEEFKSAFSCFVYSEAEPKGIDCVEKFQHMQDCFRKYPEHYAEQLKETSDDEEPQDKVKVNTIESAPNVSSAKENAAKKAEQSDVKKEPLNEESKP
The test is described as above.

In test [3] the target is T1, Arabidopsis thaliana Erv1 fused to the IMS-targeting sequence of cytochrome b2 followed by a hemagglutinin tag (not stated | Arabidopsis thaliana). Nature of the test: cross-linking + co-IP; radiolabeled Tim9 or Tim17 incubated for 2 min with Δerv1 mitochondria containing ScErv1 or AtErv1; 400 μM dithiobis succinimidyl propionate for 5 min at 25 °C, NEM-containing buffer for 20 min on ice, lysed with 1% SDS; immunoprecipitation with Erv1-specific antibodies or pre-immune serum; disulfide bonds reduced with DTT; autoradiography.

Test [4] deals with T3, yeast Erv1 (yeast (S. cerevisiae)) (UniProt P27882).
T3 sequence: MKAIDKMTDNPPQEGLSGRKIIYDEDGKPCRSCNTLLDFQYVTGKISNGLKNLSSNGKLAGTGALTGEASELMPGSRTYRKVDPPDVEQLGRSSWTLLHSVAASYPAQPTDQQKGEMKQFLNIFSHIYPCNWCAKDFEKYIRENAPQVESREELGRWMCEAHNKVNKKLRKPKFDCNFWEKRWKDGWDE
The description is as above.

For test [5], the target named is T1, Arabidopsis thaliana Erv1 fused to the IMS-targeting sequence of cytochrome b2 followed by a hemagglutinin tag (not stated | Arabidopsis thaliana). Nature of the test: co-IP; radiolabeled Mia40 incubated for 2 min with isolated erv1-ts mitochondria containing or lacking HA-tagged AtErv1; lysed with 1% SDS; immunoprecipitation with HA-specific antibodies or pre-immune serum; disulfide bonds reduced with DTT when indicated; autoradiography.

Test [6] addresses T2, yeast Mia40 (S. cerevisiae (endogenous in yeast mitochondria)). Put plainly: cross-linking + co-IP; mitochondria of the AtErv1-expressing Δerv1 strain treated with 1 mM cleavable cross-linker dithiobis succinimidyl propionate for 15 min at 25 °C, lysed with 1% SDS; immunoprecipitation with Mia40-specific antibodies or pre-immune serum; HA-tagged AtErv1 seen by western blotting.

Results are given in words; binding and its absence hold for the method and conditions named. In cells and extracts the contact can be indirect. Some results given as binding are weak or reduced against the parent protein; the word gives no strength. For some assays here: Sequences can lack the tags named with a protein.

B1: Arabidopsis thaliana CCMH (protein, UniProt Q9XI46 1-159)
chain: MEKTDEERKKAQMLDARARNISHNVRCTECGSQSIEDSQADIAILLRQLIRNEIGAGKTDKEIYSKLEDEFGETVLYAPKFDLQTAALWLTPVIIAGGTAAGIVYQKHRLRKNVDIMALNLIRGVPLTPKERVTILDVLIPPSPPPQGVVSRLRRWLNR
modifications: radiolabeled
Turning to B1, the binding entry is on record as “binds” in test [1] and “no binding” in test [2].

B2: Tim9 (protein, UniProt O74700 1-87)
chain: MDALNSKEQQEFQKVVEQKQMKDFMRLYSNLVERCFTDCVNDFTTSKLTNKEQTCIMKCSEKFLKHSERVGQRFQEQNAALGQGLGR
modifications: radiolabeled
With B2, the binding result is recorded as “binds” in test [3] and “binds weakly” in test [4].

B3: radiolabeled Mia40 (protein, UniProt P36046 1-403)
chain: MLRNLVVRNACRNRPSIQVARGLCRHQTRRLMASSPQFGRNSNQEKTAGFIMGILSMAGALYFIAPNRKPLFASRKVESDKTAEEELSSGGEQSPENEDDNNSKSDENGDDNDSKNDETEAGPQLGGDKIGASKVAEDGELVVLAEEDNKSSEDKDTDESKVSTKDDEQSNEDNATANNQKDENISSENSEENTSDKTLDNNAGSSEKKDPEHSDDEKSQQGQSDDKTTTEDNNGEEESSKKTVSDSENSAKQSESSDEEKEELRKQEEKQMGPTEEEVQHEGAYNPDTGEINWDCPCLGGMAHGPCGEEFKSAFSCFVYSEAEPKGIDCVEKFQHMQDCFRKYPEHYAEQLKETSDDEEPQDKVKVNTIESAPNVSSAKENAAKKAEQSDVKKEPLNEESKP
modifications: radiolabeled
On to B3, for which the binding entry in test [5] was “binds”.

B4: Tim17 (protein, UniProt P39515 1-158)
chain: MSADHSRDPCPIVILNDFGGAFAMGAIGGVVWHGIKGFRNSPLGERGSGAMSAIKARAPVLGGNFGVWGGLFSTFDCAVKAVRKREDPWNAIIAGFFTGGALAVRGGWRHTRNSSITCACLLGVIEGVGLMFQRYAAWQAKPMAPPLPEAPSSQPLQA
modifications: radiolabeled
Consider B4, for which the binding result in test [3] is “binds”; in test [4], “binds weakly”.

B5: Arabidopsis thaliana Erv1 fused to the IMS-targeting sequence of cytochrome b2 followed by a hemagglutinin tag (enzyme, UniProt P00175 81-167; Q8GXX0 2-191)
chain: EPKLDMNKQKISPAEVAKHNKPDDCWVVINGYVYDLTRFLPNHPGGQDVIKFNAGKDVTAIFEPLHAPNVIDKYIAPEKKLGPLQGSGEKPWQPLLQSFEKLSNCVQTHLSNFIGIKNTPPSSQSTIQNPIISLDSSPPIATNSSSLQKLPLKDKSTGPVTKEDLGRATWTFLHTLAAQYPEKPTRQQKKDVKELMTILSRMYPCRECADHFKEILRSNPAQAGSQEEFSQWLCHVHNTVNRSLGKLVFPCERVDARWGKLECEQKSCDLHGTSMDF
B5: the binding entry in test [6] was “binds”.
